These are yes or no findings as the source states them, for the method shown. Some entries that bind do so weakly or less than the wild type. For part of these data: Where a sequence is shown, tags or fusion partners need not be part of it.
Assays:
Test in all cases: two-hybrid; AD-DAO co-transformed with BD-G72 constructs into S. cerevisiae AH109; growth on SD/-Leu/-Trp/-Ade/-His (SD/-4) plates, 30 °C, 3 to 4 days
[1] = target: BD-G72 (full-length G72 N-terminally tagged with the binding domain) (UniProt P59103)
[2] = target: T1, BD-G72(1-137) (UniProt P59103)
T1 sequence: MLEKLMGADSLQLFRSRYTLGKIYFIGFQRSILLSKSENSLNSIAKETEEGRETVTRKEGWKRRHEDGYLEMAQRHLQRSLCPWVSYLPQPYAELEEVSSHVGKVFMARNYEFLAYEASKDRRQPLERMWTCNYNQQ

The chains behind the UniProt entries cited, without tags or fusion partners.
UniProt P14920: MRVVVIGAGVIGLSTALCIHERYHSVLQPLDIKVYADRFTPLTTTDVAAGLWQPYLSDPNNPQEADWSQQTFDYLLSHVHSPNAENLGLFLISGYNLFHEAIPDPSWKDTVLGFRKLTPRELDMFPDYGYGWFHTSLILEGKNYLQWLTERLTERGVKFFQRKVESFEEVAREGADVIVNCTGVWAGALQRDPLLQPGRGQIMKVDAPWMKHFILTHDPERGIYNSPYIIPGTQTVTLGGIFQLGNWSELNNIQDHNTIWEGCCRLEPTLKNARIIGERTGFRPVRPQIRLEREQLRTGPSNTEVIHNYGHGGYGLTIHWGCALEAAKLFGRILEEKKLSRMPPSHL

[3] = target: T2, BD-G72(1-60) (UniProt P59103)
T2 sequence: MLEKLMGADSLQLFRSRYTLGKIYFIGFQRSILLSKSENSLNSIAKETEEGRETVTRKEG

[4] = target: T3, BD-G72(1-35) (UniProt P59103)
T3 sequence: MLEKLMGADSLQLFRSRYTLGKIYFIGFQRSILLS

[5] = target: T4, BD-G72(1-122) (UniProt P59103)
T4 sequence: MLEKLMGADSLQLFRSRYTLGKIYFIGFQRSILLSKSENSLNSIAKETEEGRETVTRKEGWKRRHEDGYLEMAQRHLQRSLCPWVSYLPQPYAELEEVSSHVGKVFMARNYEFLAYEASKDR

[6] = target: T5, BD-G72(1-20) (UniProt P59103)
T5 sequence: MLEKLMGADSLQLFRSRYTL

binding [1]: binds
binding [2]: no binding
binding [3]: no binding
binding [4]: no binding
binding [5]: no binding
binding [6]: no binding
Substance: AD-DAO (D-amino acid oxidase N-terminally tagged with the activation domain) (from UniProt P14920 1-347) (enzyme)

Source: publication PMC3907796
